The list shows a part of the results. The list includes weakly bound sequences.

For the assay, the target named is MaxL homodimer (UniProt P61244). The assay can be described thus: universal protein-binding microarray (PBM). Conditions: PBS-based mixture, 10 nM His-tagged protein dimer, 2% milk, 200 ng/uL BSA, 50 ng/uL salmon testes DNA, 0.02% TX-100; detection with Alexa 488 anti-His …; high values mean tight binding; most listed sequences are background and not binding sites; double strand, one strand shown.
UniProt P61244, sequence (P61244 whole entry): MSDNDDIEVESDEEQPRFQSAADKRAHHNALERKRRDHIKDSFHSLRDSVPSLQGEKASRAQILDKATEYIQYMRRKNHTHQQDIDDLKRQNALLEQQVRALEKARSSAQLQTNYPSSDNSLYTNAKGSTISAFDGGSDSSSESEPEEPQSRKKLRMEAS
In the case of GAGCACTA, the binding signal (normalized occupancy) turned out to be 0.0715. Take ACTGGCTG: the binding signal (normalized occupancy) is 0.0716. For CCAGCGGG, the binding signal (normalized occupancy) stood at 0.0662.

As to ATTTACAG, the binding signal (normalized occupancy) is 0.0746. As for CCCTTCCC, the binding signal (normalized occupancy) stood at 0.077.

Consider AGTCGCTC, for which the binding signal (normalized occupancy) amounted to 0.0699.

Consider AGCCGTGC, for which the binding signal (normalized occupancy) came to 0.0711. Regarding AACCTTTA, the binding signal (normalized occupancy) was 0.0757. For TAGAGCTA the value was 0.0719; for ACTCGAAC, 0.0715; for GATATTCA, 0.0766. The same measure for TAGTCGGA: 0.0689; for AGGTAAAG: 0.0732; for AATAATAC: 0.0773. Take TATCTCAA: the binding signal (normalized occupancy) was found to be 0.0807. For ATCCAAGC the value was 0.0746. The same measure for AAAAATTT: 0.0678; for ACCCTGCC: 0.0705; for AACTCGAT: 0.0773. The same measure for CGGGACCG: 0.0673; for CAACAAGG: 0.0748; for TGCATTAA: 0.0782.

Turning to AAGATGTC, the binding signal (normalized occupancy) came to 0.0793. For ACGTATCT the value was 0.0817. As for CTGGTTGA, the binding signal (normalized occupancy) is 0.07.

Regarding CGGGAATA, the binding signal (normalized occupancy) is 0.0776. For ATGTCGCG the value was 0.0796. As for ATGCTGAC, the binding signal (normalized occupancy) stood at 0.0823. As to ACAAATCG, the binding signal (normalized occupancy) amounted to 0.0752.

As to AAATAAGT, the binding signal (normalized occupancy) is 0.0769.

Regarding GGTGTTTA, the binding signal (normalized occupancy) was 0.0788. For GTAACGAA the value was 0.0794. The same measure for GTCACGAC: 0.0754. Consider CGAATCTC, for which the binding signal (normalized occupancy) is 0.0732.

Regarding AGATGTTG, the binding signal (normalized occupancy) was determined as 0.0819. For CGAAGAAC the value was 0.0705. For CCCAGTTC the value was 0.0708; for CTCGGTGC, 0.0712; for CAAACACG, 0.0897. Regarding ACCATGGC, the binding signal (normalized occupancy) came out at 0.0734. For the sequence AGCCGGGA, the binding signal (normalized occupancy) was 0.0687. Consider GATTGCAC, for which the binding signal (normalized occupancy) was 0.0761. For ACGACTCC the value was 0.0749; for AACGAAGC, 0.0706. The same measure for ACCACGCC: 0.102; for ATGTAGCC: 0.0773; for ATCCTTGG: 0.0721. Consider CGGAGACC, for which the binding signal (normalized occupancy) amounted to 0.069. For ACGTGTCA, the binding signal (normalized occupancy) stood at 0.0923. The same measure for CCTTGAAA: 0.0716; for AGACTTCA: 0.075; for AGCTCTGC: 0.0685. Consider GGCTTCGA, for which the binding signal (normalized occupancy) is 0.0706.

In the case of AGTATCGA, the binding signal (normalized occupancy) was 0.0752. The same measure for ATGCCGTG: 0.0804. For AGGACCTG the value was 0.0688; for AGAATCCC, 0.0764. Take CCCATTGA: the binding signal (normalized occupancy) stood at 0.0764. In the case of ATCGCACC, the binding signal (normalized occupancy) was found to be 0.0771.

On to AACAGTAC, for which the binding signal (normalized occupancy) stood at 0.0779.

For the sequence GGGCGTGA, the binding signal (normalized occupancy) came out at 0.0932. In the case of CGAGAGCA, the binding signal (normalized occupancy) stood at 0.0754. The same measure for CTTGCTTA: 0.0751; for CGGCCCCG: 0.0693; for CCCGTCCG: 0.0722. The same measure for ATAAGTCC: 0.0745.

Turning to GAACCTGA, the binding signal (normalized occupancy) came out at 0.0758. For GACAGCGC the value was 0.0686; for ACTCCTTC, 0.0708. Take GTCAATTA: the binding signal (normalized occupancy) was 0.0712. Turning to AATCCTGC, the binding signal (normalized occupancy) was 0.0719. For AACCCCAA the value was 0.0752; for AGTTGTGG, 0.0789; for CCAGTTAA, 0.0685. For CCAAGGGG the value was 0.0697; for GCAGAGGC, 0.0685.

Turning to GCGAGAGC, the binding signal (normalized occupancy) came to 0.0688. On to GAGCGCAC, for which the binding signal (normalized occupancy) is 0.0721.

For the sequence AACCCGAT, the binding signal (normalized occupancy) stood at 0.0713.

For the sequence CCAACCCC, the binding signal (normalized occupancy) worked out at 0.0798.

In the case of CATGAGAC, the binding signal (normalized occupancy) worked out at 0.0947. For CGATGAAG the value was 0.0793; for AAATACAC, 0.0854; for ACCCACAG, 0.0767. With AGTTACTA, the binding signal (normalized occupancy) is 0.073.

Consider AATCAATA, for which the binding signal (normalized occupancy) was determined as 0.0734. The same measure for CCCTACCC: 0.0777.

With ACGCTGCG, the binding signal (normalized occupancy) worked out at 0.077. As for AATCATAC, the binding signal (normalized occupancy) came to 0.0806. The same measure for TCCTCACA: 0.0783; for CGCGTGTC: 0.115; for GAGAACTC: 0.0704. With GCGGTGGA, the binding signal (normalized occupancy) worked out at 0.0704. The same measure for AGATTTTC: 0.0729; for AGCAGGTG: 0.0935.

On to AGCACAAA, for which the binding signal (normalized occupancy) worked out at 0.0742. Regarding ACCTTTGA, the binding signal (normalized occupancy) is 0.076. ACAATCCT: the binding signal (normalized occupancy) turned out to be 0.0736.

As to ACTTGGAC, the binding signal (normalized occupancy) came out at 0.0719. As for AGGCTGAT, the binding signal (normalized occupancy) was determined as 0.0742. The same measure for AAGACACC: 0.0757; for CCAATGAC: 0.0707; for GTACTGAC: 0.0742. Regarding GACCGTGC, the binding signal (normalized occupancy) was 0.0746. For AAAGGCTA the value was 0.0707. The same measure for GACACCCC: 0.0775.

Consider AGAGAGAC, for which the binding signal (normalized occupancy) turned out to be 0.0677. The same measure for GAATACTC: 0.0801. In the case of CCAATCAC, the binding signal (normalized occupancy) was 0.0792.

For the sequence AGTGGGAT, the binding signal (normalized occupancy) is 0.0804. The same measure for GGAAAATA: 0.0797.

For CCACTCTA, the binding signal (normalized occupancy) was determined as 0.0773. For CCACAGTA the value was 0.0757; for TAACCAAA, 0.0763; for GTAGTCCA, 0.0722.

On to GAAAATAC, for which the binding signal (normalized occupancy) is 0.0736. The same measure for CACGTGGG: 0.707.

In the case of ATAAATGA, the binding signal (normalized occupancy) is 0.0825. The same measure for ATTCCCGG: 0.0687; for TATACTAA: 0.082. For CACATTAA the value was 0.0866; for ACCGATAA, 0.0716. For ACCGGACG the value was 0.0706; for AACCTGTC, 0.0786; for CTGACGGC, 0.0673.

As to ACAGCCCG, the binding signal (normalized occupancy) is 0.0748.

As for CGGGGTGC, the binding signal (normalized occupancy) turned out to be 0.0731.

As to CATTGCCA, the binding signal (normalized occupancy) was determined as 0.0774. In the case of CGAAAGCC, the binding signal (normalized occupancy) turned out to be 0.0679. Regarding ACAGCGGA, the binding signal (normalized occupancy) came out at 0.0685. The same measure for CTGGGTCA: 0.074; for GCATTAAA: 0.0803.

Regarding CATGGCAC, the binding signal (normalized occupancy) is 0.0927. Regarding ACGAAGAT, the binding signal (normalized occupancy) was 0.0758.

With ATACAGGG, the binding signal (normalized occupancy) worked out at 0.0752. The same measure for CCCCCGGG: 0.0648; for AATAGAAG: 0.0752; for CTGACGAC: 0.0726.

With AGCCTTAG, the binding signal (normalized occupancy) came out at 0.0702. Consider AGTGCCCG, for which the binding signal (normalized occupancy) turned out to be 0.0672. Regarding GCGGGATA, the binding signal (normalized occupancy) was found to be 0.0848. For CGCGACGC the value was 0.0713; for CGGTACCA, 0.0694; for CAAGGATC, 0.08. With AGATGTCA, the binding signal (normalized occupancy) was found to be 0.0797.

Consider CATCGGAA, for which the binding signal (normalized occupancy) was 0.0717. For CTATCTGA, the binding signal (normalized occupancy) is 0.0775. The same measure for GCCTCTCA: 0.074.

For ATACCGCA, the binding signal (normalized occupancy) is 0.0836. For CTTGCGGC the value was 0.0673. For ATTCAGGA the value was 0.0738. The same measure for GGTGTGGA: 0.0887. For CGGTCATC, the binding signal (normalized occupancy) stood at 0.0796. Consider AGATTTCG, for which the binding signal (normalized occupancy) worked out at 0.0714. As for AGTGCCTG, the binding signal (normalized occupancy) amounted to 0.0696. On to CCTACCAA, for which the binding signal (normalized occupancy) was 0.0728. In the case of CGTAGCAG, the binding signal (normalized occupancy) was 0.0734.

Regarding CGAGATGC, the binding signal (normalized occupancy) was 0.078. For GGACCCAC the value was 0.0776.

Take TATCCAGA: the binding signal (normalized occupancy) stood at 0.0728. On to ATGGTGCC, for which the binding signal (normalized occupancy) is 0.0838.

For CATGTCGG, the binding signal (normalized occupancy) turned out to be 0.088. For CGGGTTCC the value was 0.0676; for GGAGATTA, 0.078; for ATCTAAGA, 0.0766. Regarding AATATCGT, the binding signal (normalized occupancy) turned out to be 0.0747. In the case of CTCGCCAA, the binding signal (normalized occupancy) worked out at 0.0718. For the sequence AGAATTCA, the binding signal (normalized occupancy) was 0.0757. The same measure for ACACTTTA: 0.0737. The same measure for CGAATAAA: 0.0729; for AAACTATT: 0.0745. Consider CCCATGCG, for which the binding signal (normalized occupancy) stood at 0.138.

The values are drawn from article PMC4242493.
